# In all, about 310,000 compounds went through this assay and about 2,200 (0.71%) showed an effect of 50% or more. Effects have a minus sign here. The list shows a part of the results.
# Molecular target: human ether-à-go-go-related gene (hERG) potassium channel (human, UniProt Q12809)
# Assay: primary screen, population patch clamp on CHO cells stably expressing hERG
# Sequence of human ether-à-go-go-related gene (hERG) potassium channel (Q12809 whole entry, looked up): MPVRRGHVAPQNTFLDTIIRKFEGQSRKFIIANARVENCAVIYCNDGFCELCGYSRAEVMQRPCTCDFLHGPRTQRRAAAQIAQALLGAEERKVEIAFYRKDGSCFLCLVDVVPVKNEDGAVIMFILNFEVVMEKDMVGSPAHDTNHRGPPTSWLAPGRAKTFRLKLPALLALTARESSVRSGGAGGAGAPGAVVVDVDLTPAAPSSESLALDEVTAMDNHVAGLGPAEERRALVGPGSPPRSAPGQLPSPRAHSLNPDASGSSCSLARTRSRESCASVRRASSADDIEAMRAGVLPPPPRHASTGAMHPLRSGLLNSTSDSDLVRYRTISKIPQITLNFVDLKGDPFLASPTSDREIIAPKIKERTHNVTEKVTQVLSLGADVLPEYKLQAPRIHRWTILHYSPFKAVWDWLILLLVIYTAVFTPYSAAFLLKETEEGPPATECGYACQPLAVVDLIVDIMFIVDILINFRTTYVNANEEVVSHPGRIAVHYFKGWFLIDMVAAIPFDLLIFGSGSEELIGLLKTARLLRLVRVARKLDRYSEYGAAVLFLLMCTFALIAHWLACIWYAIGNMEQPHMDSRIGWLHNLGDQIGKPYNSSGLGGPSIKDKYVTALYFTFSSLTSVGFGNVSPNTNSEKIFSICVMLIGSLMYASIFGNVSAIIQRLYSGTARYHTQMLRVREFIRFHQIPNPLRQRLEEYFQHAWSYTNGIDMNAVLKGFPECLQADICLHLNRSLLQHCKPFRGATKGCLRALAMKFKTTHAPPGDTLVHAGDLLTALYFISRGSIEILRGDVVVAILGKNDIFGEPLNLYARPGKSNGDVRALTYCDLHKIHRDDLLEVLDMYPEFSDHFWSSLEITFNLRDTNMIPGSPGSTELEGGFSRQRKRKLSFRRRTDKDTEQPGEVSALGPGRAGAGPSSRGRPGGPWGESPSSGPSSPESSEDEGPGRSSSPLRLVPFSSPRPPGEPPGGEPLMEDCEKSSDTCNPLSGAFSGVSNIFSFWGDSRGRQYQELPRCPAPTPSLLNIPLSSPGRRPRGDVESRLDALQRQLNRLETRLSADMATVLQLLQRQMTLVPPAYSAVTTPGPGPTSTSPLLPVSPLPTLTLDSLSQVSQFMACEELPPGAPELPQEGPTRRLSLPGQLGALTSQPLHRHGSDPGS
row,Compound,"hERG current change (%, negative = inhibition) at 1uM [%]"
1,CCOC(=O)C1CCN(c2c(NCc3ccc(C(=O)Nc4ccc(C)cc4)cc3)c(=O)c2=O)CC1,11.4
2,COCCNC(=O)C1CCC(CNS(=O)(=O)c2c(C)cc(C)cc2C)CC1 (stereo not shown),7.32
3,CN1CCN(c2nc3c(c(=O)[nH]c(=O)n3C)n2CCCSc2ncccn2)CC1,1.05
4,Nc1ccccc1OCP(=O)(c1ccccc1)c1ccccc1,6.57
5,CC(C)(C)NC(=O)COC(=O)c1ccc2c(c1)C(=O)N(Cc1ccco1)C2=O,12.8
6,Cc1ccc(C(=O)N/C(=C\c2cccc([N+](=O)[O-])c2)C(=O)NCc2ccncc2)cc1,-65.3
7,CCOC(=O)c1ccc(NC(=O)CCn2nnc3ccccc32)cc1,7.89
8,CC1(NC(=O)Cc2ccc(Cl)c(Cl)c2)CCS(=O)(=O)C1 (stereo not shown),8.08
9,O=C1CCCC/C1=C\Nc1ccc(Cl)cn1,18.8
10,Cc1ccc2c(c1)[nH]c1c(N3CCN(Cc4ccccc4)CC3)ncnc12,11.6
11,O=S(=O)(c1cccc2ccccc12)N1CCSC1,3.27
12,COc1ccc(CNC(=O)CS(=O)Cc2nc(-c3ccccc3C)oc2C)cc1 (stereo not shown),1.07
13,Cc1cccc(CN2CCC(CNC(=O)Nc3ccc(F)c(Cl)c3)CC2)c1,-13
14,Cc1ccc(S(=O)(=O)N(C)c2ccc(OC(C)C(=O)N3CCCC3)cc2)cc1C (stereo not shown),-5.63
15,Cc1ccc2c(c1)C(=C(C#N)C#N)C(=O)N2CCN1CCOCC1,12.1
16,O=C(CN1C(=O)NC2(CCCCC2)C1=O)Nc1ccc(N2CCOCC2)cc1,21.8
17,Cc1ccc(NC(=O)COC(=O)CCc2ccc(S(=O)(=O)N3CCOCC3)cc2)cc1F,7.33
18,O=C(NCc1ccco1)c1ccc(CS(=O)Cc2cccc(Cl)c2)o1 (stereo not shown),4.88
19,O=C(NCc1cccc(Cl)c1)C1CCC(=O)N(CC2CCCCC2)C1 (stereo not shown),8.23
20,Nc1nc2c(s1)C(=O)CCC2,6.66
21,CSc1cc(C)c(OCC(=O)Nc2ccc(NC(C)=O)cc2)c(C)c1,0.286
22,CN1C(=O)N(CC(=O)N2CCN(S(=O)(=O)c3ccc(Cl)s3)CC2)C(=O)C12CCCCC2,-1.65
23,Cc1ccc(NC(=O)CN2C(=O)COc3ccc(S(=O)(=O)N4CCCC4)cc32)c(C)c1,14.8

row,Compound,"hERG current change (%, negative = inhibition) at 1uM [%]"
1,Fc1ccc(F)c(CN2CCN(c3ncccn3)CC2)c1,7.59
2,COc1ccc(CN(C)C(=O)[C@H](Cc2ccccc2)NC(=O)c2ccco2)c(OC)c1,9.47
3,CN1CCc2c(OCC(=O)NC3CCCCC3)cccc2C1=O,14.3
4,CC(C)(C)c1ccccc1NC(=O)c1cccnc1,10.8
5,O=C(Nc1ccc(Oc2cccc(C(F)(F)F)c2)nc1)c1ccccc1,16.8
6,Cc1ccc(NC(=O)CN(C)C(=O)c2cc(-c3ccco3)nc3ccccc23)cc1,4.08
7,CCC(=O)c1ccc2ncccc2c1,9.26
8,CCn1c(=O)cc(OCC(=O)N(C)C2CCCCC2)c2ccccc21,8.02
9,NC(=O)c1cc2nc(-c3ccco3)cc(C(F)(F)F)n2n1,8.62
10,CCc1c(C)c(C#N)c2nc3ccccc3n2c1Nc1c(C)n(C)n(-c2ccccc2)c1=O,-5.95
11,COc1cccc(NC(=O)CN2CCc3ccccc3C2)c1,18.4
12,O=[N+]([O-])c1ccc(-c2csc(Nc3ccccc3)[n+]2Cc2ccccc2)cc1.[Br-],28.3
13,CCOc1ccc(NC(=O)COC(=O)C23CC4CC(CC(C4)C2)C3)c([N+](=O)[O-])c1,9.18
14,COc1cc([N+](=O)[O-])ccc1NC(=O)CSc1nnc(C)c(C)n1,4.53
15,Cc1[nH]c2ccccc2c1CCNC(=O)c1ccc2nccnc2c1,13.9
16,Nc1ccc2nc(N3CCOCC3)sc2c1,15.4
17,Cc1nc(SCC(=O)NC2CCS(=O)(=O)C2)c(C#N)c(C)c1C (stereo not shown),8.69
18,O=C(Nc1cccc(CCc2ccccn2)c1)c1cc(F)c(F)cc1Cl,2.96
19,Cc1cccc(NC(=O)C2CCCN(S(=O)(=O)c3cccc4nonc34)C2)c1 (stereo not shown),19.1
20,Cc1nn(C)c(C(=O)NN)c1Cl,6.21
21,CC(=O)N1c2ccc(S(=O)(=O)NCCC(=O)NC3CCC(C)CC3)cc2CC1C (stereo not shown),14.1
22,O=[N+]([O-])c1cc(C(F)(F)F)cc([N+](=O)[O-])c1N1CCCNCC1,5.07
23,O=C(NNC(=O)c1ccccc1OCc1ccc(F)cc1)c1ccncc1,3.95

# From article PMC4336329 (PLoS ONE, 2015)
